Laboratory results published in PubChem BioAssay AID1159614 (National Center for Advancing Translational Sciences (NCATS), 2016).
Screen size: about 45,000 compounds; about 65 (0.1%) were called active. Calls follow the shape of the dose curve; as a rule, active = well fitted activation curve with a large enough effect; inconclusive = small, poorly fitted or top-dose-only effect; inactive = no such curve, though single readings can be large or run the other way. The list shows a part of the results.

What follows are compounds tested against Galactocerebrosidase (Homo sapiens) (UniProt P54803) (assay: A Novel Cell-Based Assay to Identify Small Molecules for B -Galactocerebrosidase). Details: 145M-Twi-hGALC-G270D cells (Twitcher mouse brain line with human GALC G270D), HMU-beta-Gal fluorescence, 48 h; series mostly up to 57.5 µM; activation: at the top concentration.
Summary of the method: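 Fluorogenic HMU-b-Gal hydrolysis (0.1 mM final, pH 5.2 citrate-phosphate with 1 mg/mL sodium taurocholate; carbonate stop buffer) measures mutant GALC activity after compound treatment of live 145M-Twi Twitcher brain cells stably carrying human GALC-G270D, with wild-type GALC line alongside; activation sought.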
Also: 0% is about no effect; nearly all actives have a fitted effect of over 65% in size.

Sequence of UniProt P54803 (P54803 whole entry, looked up): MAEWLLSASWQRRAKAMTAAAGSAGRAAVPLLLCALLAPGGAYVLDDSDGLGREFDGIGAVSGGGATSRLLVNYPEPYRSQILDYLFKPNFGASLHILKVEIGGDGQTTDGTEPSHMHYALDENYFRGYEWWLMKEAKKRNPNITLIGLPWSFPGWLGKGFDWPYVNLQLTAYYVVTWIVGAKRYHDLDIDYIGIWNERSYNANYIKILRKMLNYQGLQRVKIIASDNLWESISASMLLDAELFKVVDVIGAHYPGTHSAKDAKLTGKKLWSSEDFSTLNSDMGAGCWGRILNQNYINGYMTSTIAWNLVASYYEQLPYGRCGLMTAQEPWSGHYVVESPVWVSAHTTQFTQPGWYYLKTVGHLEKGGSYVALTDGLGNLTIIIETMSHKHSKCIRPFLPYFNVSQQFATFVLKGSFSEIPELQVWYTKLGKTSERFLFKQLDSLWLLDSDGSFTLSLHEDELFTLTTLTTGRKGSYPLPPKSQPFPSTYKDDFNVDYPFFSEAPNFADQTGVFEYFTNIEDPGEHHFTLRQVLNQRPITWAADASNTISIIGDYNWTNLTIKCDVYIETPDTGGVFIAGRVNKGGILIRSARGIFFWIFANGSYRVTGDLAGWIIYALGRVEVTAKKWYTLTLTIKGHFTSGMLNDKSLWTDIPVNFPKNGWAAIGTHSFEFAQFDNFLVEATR

activation, inactive:
COc1ccc(NC(=O)c2c(NCc3sccc3C)sc3c2CCCCC3)c(OC)c1 -13.8%
Cc1ccc2c(=O)c(C(=O)c3ccc(Cl)cc3)cn(CC(=O)NC3CCCCC3)c2n1 -16.4%
COc1ccc2c(c1)c(=O)c(S(=O)(=O)c1ccc(C)cc1)cn2Cc1ccccc1C 0.459%
COC(=O)c1sccc1S(=O)(=O)N(CC(=O)Nc1c(C)cccc1C)c1ccc(C)c(C)c1 -9.58%
COC(=O)C(C)n1nnc2sc(-c3ccccc3)cc2c1=O (stereo unspecified) -8.43%
Cc1ccc(NC(=O)CCC(=O)N2CCSc3ccccc32)cc1Cl -6.67%
CCOC(=O)N1CCc2c(sc3c2c(=O)n(Cc2ccccc2)c(=O)n3CC(=O)Nc2ccc(C)c(C)c2)C1 -9.95%
CCC(C(=O)Nc1cc(F)ccc1F)n1nc(-c2cc(C)ccc2C)ccc1=O (stereo unspecified) -3.41%
COc1ccc(Br)cc1C(=O)Nc1ccc(-c2nc3cc(Cl)ccc3o2)cc1 -8.82%
Cc1c(NC(=O)c2cccc3c(Cl)cccc23)cccc1-c1nc2ccccc2o1 -6.94%
O=C(CCS(=O)(=O)c1cc(Br)cc2c1N(C(=O)C1CC1)CC2)NCc1ccccc1Cl -7.34%
Cc1c(NC(=O)C(C)(C)Oc2ccc(Cl)cc2)cccc1-c1nc2ncccc2o1 -11.7%
CC1=C(C(=O)NCc2ccccc2C)C2(CCCCC2)OC1=O 1.34%
CC(=O)c1ccc(NC(=O)Cn2cc(S(=O)(=O)Cc3ccccc3Cl)c3ccccc32)cc1 1.29%
Cc1c(Cl)cccc1NC(=O)Nc1nnc(N(C)Cc2ccccc2)s1 0.12%
Cc1c(N(C)C)c(=O)n(-c2ccccc2)n1C -10.8%
Oc1c(Cl)cc(Cl)c(Cl)c1Cc1c(O)c(Cl)cc(Cl)c1Cl -3.3%
COCCCNC(=O)CSc1nc2cc3c(cc2c(=O)n1CCCC(=O)NCc1ccc(OC)cc1)OCO3 -5.08%
COc1ccc(N(CC(=O)Nc2cc(C)ccc2C)S(=O)(=O)c2ccc(OC)c(OC)c2)cc1 -2.24%
O=C(COc1ccccc1[N+](=O)[O-])Nc1cccc(-c2nc3ccccc3s2)c1 -8.5%
Cn1c(=O)c2c(nc(Oc3ccccc3)n2Cc2c(Cl)cccc2Cl)n(C)c1=O -11.4%
CCc1ccc(C2c3c(oc4ccc(F)cc4c3=O)C(=O)N2c2nc(C)c(C(=O)OC)s2)cc1 (stereo unspecified) -13.6%
CCOc1ccc(NC(=O)CN2C(=O)COc3ccc(S(=O)(=O)NC4CCCC4)cc32)cc1 -38%
O=C(Nc1ccc(F)cc1F)c1ccc2c(O)c(S(=O)(=O)c3ccc(Cl)cc3)c(=O)[nH]c2c1 -21.4%
COc1cc(NC(=O)CSc2nc3nc(C)c(Cc4ccc(C)cc4)c(C)n3n2)cc(OC)c1OC -10.1%
O=C(CSc1cn(CC(=O)N2CCOCC2)c2ccccc12)Nc1ccccc1 -6.39%
O=C(COCc1cc(-c2ccc3c(c2)OCO3)on1)NCc1ccccc1Cl -23%
O=C(Nc1c(C(=O)O)oc2ccccc12)c1ccc(C(F)(F)F)cc1 -13%
O=C(COc1ccccc1)Nc1ccccc1OCc1cc(=O)n2ccccc2n1 -9.04%
CC1=C(c2ccc(C)c(C)c2)S(=O)(=O)N(Cc2ccc(C(=O)NC(C)c3ccccc3)cc2)C1=O (stereo unspecified) -6.41%
Cc1ccccc1Cc1c(C)nc2nc(SCC(=O)NCCc3ccc(Cl)cc3)nn2c1C -8.92%
COc1ccccc1OCC(=O)NCc1nc(-c2ccc(Cl)cc2)no1 -2.9%
CCOc1ccc(C(=O)Nc2ccc(S(=O)(=O)Nc3nc(C)cc(C)n3)cc2)cc1OC -16.1%
CCOC(=O)c1cc(S(=O)(=O)N2CCN(c3ccc(C)cc3C)CC2)[nH]n1 2.29%
Cc1ccc(C)c(NC(=O)CSC2=Nc3ccccc3N=C(c3ccc(F)cc3)C2)c1 -2.59%
COc1cccc(N2CCN(c3ncnc4onc(-c5ccc(F)cc5)c34)CC2)c1 -2.88%
Cc1ccc(S(=O)(=O)c2nnn3c2nc(N2CCCC2)c2sccc23)cc1 -5.18%
Cc1ccc(-c2nnc3c4ccccc4c(C)nn23)cc1NC(=O)c1ccccc1Cl -4.41%
O=C(C1CCCN(S(=O)(=O)c2cccc3nsnc23)C1)N1CCN(c2ccccc2Cl)CC1 (stereo unspecified) -14.5%
O=C(CCCCCn1c(=O)[nH]c2ccccc2c1=O)NCc1ccccc1 -13.6%
Cc1ccc2c(c1)c(N1CCCC1=O)c(C(=O)Nc1ccc(F)cc1F)n2C -24.6%
Cc1cccc(N(C)c2ccc3cc(S(=O)(=O)N4CCCC4)ccc3n2)c1 -13.7%
CCC(=O)N1CCc2cc(S(=O)(=O)NC(Cc3ccccc3)C(=O)Nc3cccc(OC)c3)ccc21 (stereo unspecified) -3.7%
Cc1nc2scc(C)n2c(=O)c1S(=O)(=O)N1CCN(c2cccc(C(F)(F)F)c2)CC1 -10.9%
CN(C)c1ccc(NC(=O)Cn2cc(S(=O)(=O)Cc3cccc(Cl)c3)c3ccccc32)cc1 9.11%
Cc1cc(C(=O)NCc2ccc(Cl)cc2)c2c(C)nn(-c3ccccc3)c2n1 -10.7%
COC(=O)c1c(NC(=O)Nc2ccc(Cl)cc2)sc(C)c1C -8.64%
COc1ccccc1CNC(=O)CCC1N=C2c3ccccc3N=C(SCc3ccc(C)cc3)N2C1=O (stereo unspecified) -2.78%
CC(=O)c1cc(-c2ccccc2)n(CCC(=O)Nc2ccc(C)cc2C)c1C -17.1%
COc1ccc(N2CC(NC(=O)c3cc4ccccc4o3)CC2=O)cc1 (stereo unspecified) -9.45%
CS(=O)(=O)N1CCc2cc(C(=O)N3CCN(c4ccccc4)CC3)ccc21 -26.5%
Cc1ccc2c(c1)N(C(=O)Nc1cccc(C)c1C)CCO2 -21.8%
COc1ccc(CCC(=O)NCCc2csc(-c3ccc(C(F)(F)F)cc3)n2)cc1 3.84%
CCCc1nnc(NC(=O)c2cc(=O)c3cc(Cl)ccc3o2)s1 -8.26%
COc1ccccc1NC(=O)NCc1cccn1Cc1ccccc1 -2.04%
CCCC1=Nc2cc(C(=O)NCCc3ccccc3)ccc2Sc2ccc(C)cc21 -42.2%
Cc1cc(Br)ccc1NC(=O)c1ccc(NS(=O)(=O)c2c(C)noc2C)cc1 -13.3%
COc1ccc(CNCCC(c2ccccc2)c2ccc3c(c2)OCO3)cc1 (stereo unspecified) -16.9%
COc1cccc(-c2nc(SCC(=O)NC3CCCC3)c(-c3ccccc3)[nH]2)c1 -20.5%
COc1ccc(NC(=O)Cn2cnc3ccc(S(=O)(=O)N4CCC(C)CC4)cc3c2=O)cc1OC -0.984%
COc1ccc(-c2cnn3c(C)cc(C)nc23)cc1OC -8.64%
CCOc1ccc(-c2nc(SCC(=O)NC3CCCC3)c(-c3ccccc3)[nH]2)cc1OC -19.4%
Cc1c(-c2nsc(NC(=O)c3cccc(Cl)c3)n2)nnn1-c1ccccc1C(F)(F)F -16.8%
CSc1ccc(CCNC(=O)CN2C(=O)c3cccnc3Oc3ccc(Cl)cc32)cc1 -7.38%
CCOc1ccc(CCNC(=O)CCc2c(C)nc3cc(-c4ccccc4OC)nn3c2C)cc1 -20.7%
CCCOc1ccc(C(=O)Nc2ccc(Cl)c(-c3nc4ncccc4o3)c2)cc1 -9.48%
O=C(CSc1nc(-c2cccs2)nc2cc(=O)[nH]n12)Nc1ccccc1F -9.46%
CCOc1ccc(CCNC(=O)CSc2cc(=O)n(C)c3cc(Cl)ccc23)cc1OCC -21.1%
Cc1ccc(-c2noc(CCCC(=O)NCc3ccco3)n2)cc1 -28.5%
Nc1c(-c2nc(-c3ccc4c(c3)OCO4)cs2)c2ccccn2c1C(=O)c1ccccc1 -5.68%
CCCCn1c(NCc2cc(Cl)ccc2O)nc2ccccc21 -37.6%
COc1cc(C(=O)N2CCc3c([nH]c4ccccc34)C2c2ccc(C)cc2)cc(OC)c1OC (stereo unspecified) 13.4%
CCc1ccc(C(=O)c2cn(CC(=O)Nc3ccc4c(c3)OCO4)c3ccc(Cl)cc3c2=O)cc1 -1.34%
NS(=O)(=O)c1ccc(N2CCCCS2(=O)=O)cc1 -2.57%
CCc1ccc(N(CC)C(=O)c2cn(C)c(=O)c3cc(OC)c(OC)cc23)cc1 -12.4%
CCOc1ccc2c(c1)NC(c1ccc(OCC)c(OCC)c1)=NC(c1ccc(F)cc1)=N2 -16.8%
COc1ccccc1C(=O)NC(=O)Nc1ccc(-c2cc(C(F)(F)F)nn2-c2ccccc2)cc1 -8.55%
Cc1ccc(S(=O)(=O)NCCc2nnc3ccc(SCC(=O)Nc4c(C)cc(C)cc4C)nn23)cc1 -2.54%
Cc1ccc(S(=O)(=O)N2CCCc3cc(NC(=O)c4ccc(Cl)cc4)ccc32)cc1 11.6%
CCn1c(CNC(=O)c2ccc(OC)cc2)nnc1SCC(=O)Nc1cccc(C)c1 -8.15%
CCOc1ccc(CCNC(=O)c2c3c(nc4ccccc24)C(=O)N(C2CCCCC2)C3)cc1 -39.4%
CCN(CC)c1ccc(NC(=O)C2CCN(S(=O)(=O)c3c(C)noc3/C=C/c3ccccc3F)CC2)c(C)c1 -3.84%
CC(C)(C)C1CCc2c(sc3nc(-c4cc5cc(Cl)ccc5oc4=O)[nH]c(=O)c23)C1 (stereo unspecified) -5.78%
Cc1ccc(NC(=O)Cn2nc(C(F)(F)F)c3c2CCCC3)cc1 -2.1%
O=C(NCCc1ccccc1Cl)c1cc2ccccn2n1 -13.9%
Cc1ccc(CC(=O)NCc2nc(-c3ccccc3)no2)cc1 -13.6%
CCOC(=O)c1ccc(NC(=O)c2nc(SCc3ccc(F)cc3)ncc2Cl)cc1 -13.8%
COC(=O)c1c(NC(=O)c2cc(=O)c3cc(C)cc(C)c3o2)sc2c1CCC2 -13.5%
COc1ccccc1NC(=O)c1cc2cc3ccc(OC)c(Cl)c3nc2s1 -16%
Cc1cc(SCC(=O)Nc2ccc(F)cc2F)nc(=O)[nH]1 -4.84%
COc1ccc2ncc3c(-c4ccc(C)c(C)c4)nn(CC(=O)Nc4ccccc4)c3c2c1 -10.9%
CCCCn1c(=O)c2oc3ccccc3c2n(Cc2ccc(C)cc2)c1=O 23.9%
COc1cccc(C(=O)Nc2nc(-c3nnn(-c4cccc(Cl)c4C)c3C)ns2)c1 -0.728%
COc1ccc2c(CNCc3ccco3)c(C(=O)O)n(Cc3cccc(F)c3)c2c1 -4.12%
COc1ccc(NC(=O)Cn2c(=O)n(-c3ccc(OC)cc3)c(=O)c3sc4ccccc4c32)cc1 -1.15%
COc1ccc(CNc2ncnc3c2c(-c2ccccc2)cn3-c2ccc(C)c(Cl)c2)cc1 -8.57%
